Assay results taken from article PMC4336329 (PLoS ONE, 2015).
Hit rate of the full screen: of about 310,000 compounds, about 14,000 (4.5%) showed an effect of 50% or more. Effects have a minus sign here. The list shows a part of the results.

The compounds below were run against human ether-à-go-go-related gene (hERG) potassium channel (human, UniProt Q12809) (assay: primary screen, population patch clamp on CHO cells stably expressing hERG).
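Also: peak tail current of the secondary pulse compared with the same well before compound.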

Sequence of human ether-à-go-go-related gene (hERG) potassium channel (Q12809 whole entry, looked up): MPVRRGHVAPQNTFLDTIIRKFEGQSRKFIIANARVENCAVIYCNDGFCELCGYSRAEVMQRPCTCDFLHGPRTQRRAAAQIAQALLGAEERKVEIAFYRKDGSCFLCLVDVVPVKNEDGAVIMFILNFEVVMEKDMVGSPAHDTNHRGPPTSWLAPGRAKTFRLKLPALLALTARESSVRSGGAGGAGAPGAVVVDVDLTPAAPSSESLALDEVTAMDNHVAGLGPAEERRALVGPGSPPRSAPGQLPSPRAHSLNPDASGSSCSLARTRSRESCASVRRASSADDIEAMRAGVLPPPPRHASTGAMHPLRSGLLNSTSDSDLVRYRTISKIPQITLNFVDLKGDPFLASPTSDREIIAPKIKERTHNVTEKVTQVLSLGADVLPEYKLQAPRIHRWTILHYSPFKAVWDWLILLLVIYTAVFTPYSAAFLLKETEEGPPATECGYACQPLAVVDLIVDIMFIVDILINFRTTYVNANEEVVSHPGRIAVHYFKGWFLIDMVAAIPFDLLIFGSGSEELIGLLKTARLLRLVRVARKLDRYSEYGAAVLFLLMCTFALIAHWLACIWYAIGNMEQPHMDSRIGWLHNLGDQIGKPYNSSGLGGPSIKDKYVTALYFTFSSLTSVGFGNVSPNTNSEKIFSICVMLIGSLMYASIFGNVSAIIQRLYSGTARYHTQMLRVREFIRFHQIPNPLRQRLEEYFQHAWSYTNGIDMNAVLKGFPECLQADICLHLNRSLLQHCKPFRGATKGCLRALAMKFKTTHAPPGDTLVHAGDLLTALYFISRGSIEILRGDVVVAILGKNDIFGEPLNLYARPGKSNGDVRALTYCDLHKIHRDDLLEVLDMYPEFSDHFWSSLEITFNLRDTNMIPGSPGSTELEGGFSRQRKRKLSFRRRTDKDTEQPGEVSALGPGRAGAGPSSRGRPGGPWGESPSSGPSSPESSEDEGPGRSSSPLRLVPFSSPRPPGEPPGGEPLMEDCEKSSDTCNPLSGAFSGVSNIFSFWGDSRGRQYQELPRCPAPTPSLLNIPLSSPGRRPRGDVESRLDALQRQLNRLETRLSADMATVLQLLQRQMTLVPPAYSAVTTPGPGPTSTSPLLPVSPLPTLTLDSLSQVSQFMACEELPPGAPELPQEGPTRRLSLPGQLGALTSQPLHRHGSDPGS

Point of comparison: `O=C(O)Cn1nc(-c2ccc(Cl)cc2)ccc1=O`, “hERG current change (%, negative = inhibition) at 10uM” value 0.627%. Against it:
- COc1ccc(S(=O)(=O)Nc2ccc(S(=O)(=O)N3CCCCC3)cc2)cc1 — lower, -20.1%
- Cc1ccc(-c2nc(CS(=O)CC(=O)N3CCN(c4ncccn4)CC3)c(C)o2)cc1 (stereo not drawn) — lower, -54.1%
- CCc1cccc(C)c1NC(=O)CCCSc1nc2ccccc2s1 — lower, -0.593%
- NNC(=O)c1cc2cc(Oc3ccccc3)ccc2[nH]1 — higher, 16.4%
- Cc1cc(C)c(NC(=O)CSc2nc3ccc(N4C(=O)c5ccccc5C4=O)cc3s2)c(C)c1 — higher, 32.3%
- O=c1[nH]c2c(c(=O)n1Cc1ccccc1)CCC2 — higher, 2.43%
- CC(C)CCN1CCN(C2CCN(c3ccc4c(c3)OCO4)CC2)CC1CCO (stereo not drawn) — lower, -17.6%
- CC(=O)c1cccc(NC(=O)Nc2csc3c2CCCC3)c1 — higher, 6.2%
- Cc1cccc(Nc2nnc(SC3CCOC3=O)s2)c1C (stereo not drawn) — higher, 7.81%
- CC(=O)N1CCN(C(=S)Nc2ccc(SC(F)F)cc2)CC1 — lower, -14.1%
- CCOc1cc(NC(=S)NCCCN2CCOCC2)c(OCC)cc1NC(=O)C1CC1 — lower, -8.1%
- CCC(CC)NC(=O)COC(=O)c1cc(Br)ccc1Cl — lower, -0.327%
- Oc1c(Cl)cc(Cl)cc1C=Nc1cc(C(F)(F)F)ccc1N1CCc2ccccc2C1 — higher, 3.25%
- COC(=O)[C@@H]1C[C@@]2(O)[C@@H](O)[C@@H](O)[C@@H](O)C[C@H]2N1Cc1cc(OC)cc(OC)c1 — higher, 15.9%
- COc1ccc(CNC(=O)CSc2nnc(-c3cccnc3)n2N)cc1 — lower, 0.54%
- CCN(CC)CCN1C(=O)c2ccccc2NC1c1ccc(N(C)C)cc1 (stereo not drawn) — lower, -46.6%
- CCOC(=O)c1ccc(COC(=O)CNS(=O)(=O)c2ccccc2)cc1 — higher, 7.3%
- COc1ccc(S(=O)CC(=O)Nc2ccccc2Cl)cc1 (stereo not drawn) — higher, 18.9%
- CC(Cc1ccccc1)C(=O)N(C)Cc1cccnc1 (stereo not drawn) — higher, 11.3%
- Cc1ccc(N=C2C(=O)Nc3ccccc32)c(C)c1 — higher, 12.2%
- COc1cccc(CC2(CO)CCCN(Cc3ccc(CN4CCCCC4)s3)C2)c1 (stereo not drawn) — lower, -22.1%
- CCOc1ccc(NC(=O)CCn2nc(C)c(S(=O)(=O)N3CCCCC3)c2C)cc1 — lower, -17.9%
- COc1ccc(C)cc1NC(=O)C(OC(=O)Cn1cnc2c1c(=O)n(C)c(=O)n2C)c1ccccc1 (stereo not drawn) — lower, -7.98%
- COC(=O)c1ccc(CSCc2ccc(C#N)cc2)cc1 — lower, -15.8%
- CCc1nnc(N/N=C/c2c(C)[nH]c3ccccc23)n1N.Cl — higher, 48.7%
- COC(=O)C1=C(O)/C(=C\c2sccc2C)N=C1C — higher, 14%
- Cc1cc(Br)cc2cn[nH]c12 — higher, 26.3%
- CC(=O)N1N=C(c2ccccc2)CC1c1ccccc1 (stereo not drawn) — lower, -11.7%
- COC(=O)c1ccccc1N(C)C(=O)C12CCC(C)(C(=O)O1)C2(C)C (stereo not drawn) — higher, 20.4%
- CCOC(=O)c1cnc(-n2nc(C)cc2C)nc1N1CCOCC1 — lower, -5.34%
- CCCCn1c(SCC(=O)N2CCOCC2)nnc1-c1ccoc1C — lower, -0.136%
- C=CCc1cc(/C=C2/NC(=S)NC2=O)cc(OC)c1O — higher, 3.53%
- COC(=O)/C=C1/S/C(=N/NC(=O)c2ccc(OC)cc2)NC1=O — higher, 21.1%
- O=C(CCCCCNC(=O)N1CCn2c1nc1ccccc12)N[C@H](C(=O)O)c1ccccc1 — higher, 19.9%
- O=C(Cc1ccccc1[N+](=O)[O-])N1CCN(c2ccc(F)cc2)CC1 — lower, -20.1%
- Cc1ccc(NC(=O)N2CCC(c3nc4c(nnn4Cc4cccc(Cl)c4)c(=O)[nH]3)CC2)cc1 — lower, -5.81%
- CCS(=O)(=O)N1CCC(C(=O)NCCc2ccc(C)cc2)CC1 — higher, 0.92%
- Cc1ccc(C(=O)N/C(=C/c2ccc(-c3cccc([N+](=O)[O-])c3)o2)C(=O)NC(C)C)cc1 — lower, -30.8%
- COc1ccccc1N1CCN(C(=O)CCS(=O)(=O)c2ccc3c(c2)NC(=O)C(C)S3)CC1 (stereo not drawn) — higher, 3.51%
- CCC(Oc1nc2ccccc2nc1-c1ccccc1NC(C)=O)C(=O)c1ccccc1 (stereo not drawn) — lower, -11.5%
- S=C1NCN(Cc2ccco2)CN1c1ccccc1 — higher, 9.93%
- COc1ccc(-c2cc3ncnc(Cl)c3s2)cc1 — higher, 19.7%
- COc1ccc(-n2cc(CN(C)C(C)c3ccncn3)c(-c3cccc(F)c3)n2)cc1 (stereo not drawn) — lower, -39.9%
- C=C(C)c1cccc(C(C)(C)NC(=O)N2CCC(C)CC2)c1 — higher, 8.25%
